Measured values taken from the RNAGym collection of RNA variant scans (doi:10.1093/nar/gkz1192).
Read counts are not given, so values of variants with three or more changes are uncertain.

B1: CPEB3 Ribozyme (parent)
chain: UAACAGGGGGCCACAGCAGAAGCGUUCACGUCGCAGCCCCUGUCAGAUUCUGGUGAAUCUGCGAAUUCUGCUGUAUAUCUC

Variants of: B1
Assay: self-cleavage, relative activity (ratio to wild type); higher = more cleavage; in vitro, sequencing
Summary of the method: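 Libraries of CPEB3 self-cleaving ribozyme mutants came from rounds of error-prone PCR and carried barcodes, which DNA sequencing matched to variants. In vitro transcription used T7 RNA polymerase at 37°C for 5 hours, with a further 15 min in DNase I before EDTA stopped the reaction; the ribozymes cleaved during both steps. The RNA was reverse transcribed with template switching and sequenced on Illumina. Relative activity is the cleaved/total read fraction of a variant divided by that of the unmutated ribozyme, averaged over three batches with at least 5 reads.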
A3G U58A U78A showed a self-cleavage of 0.47. A3G U58C G70A U80C gave a self-cleavage of 0.42. Work on A3G U60A A64U yielded a self-cleavage of 0.25. A3G U60A C79U gave a self-cleavage of 0.79. Work on A3G U60A U67C U78G yielded a self-cleavage of 0.21. Work on A3G U60C A64G U76C yielded a self-cleavage of 0.3. With A3G U60C A77U the self-cleavage was 0.74. A3G U60C U69C showed a self-cleavage of 0.44. With A3G U67C U76C the self-cleavage was 0.27. For A3G U72A A77G, the self-cleavage was 0.8. A3G U72C U74C gave a self-cleavage of 1.19. With A3G U76G A77G the self-cleavage was 0.62. A3G U78C C79G gave a self-cleavage of 1.16. A3U A5G A45U U54A A65G gave a self-cleavage of 0.1. A3U A5G C11G G19C U25C U43G showed a self-cleavage of 0.08. In the case of A3U A5G C40U U58A U60A, the self-cleavage is reported as 0.34. For A3U A5G U43A, the self-cleavage was 0.82. With A3U A5G U72C C81A the self-cleavage was 0.56. For A3U A5U A35U U54C A75G, the self-cleavage was 0.63. A3U A5U C62A A64U showed a self-cleavage of 0.36. Work on A3U A5U G7U A35U yielded a self-cleavage of 0.3. Work on A3U A13C C27U C81A yielded a self-cleavage of 0.49. A3U A13G A18U A20G A57G A64G gave a self-cleavage of 0.06. Work on A3U A13G A18U U41A U58C yielded a self-cleavage of 0.61. A3U A13G A21G A35G A45G C62U gave a self-cleavage of 0.3. For A3U A13G A65G U80C, the self-cleavage was 0.47. A3U A13G U25C showed a self-cleavage of 0.54. A3U A13G U51G A64G A75G gave a self-cleavage of 0.74. In the case of A3U A13U A15U U26C, the self-cleavage is reported as 0.61. For A3U A13U A18C A28G U58C, the self-cleavage was 0.25. With A3U A13U A47G U74G U78A the self-cleavage was 1.24. For A3U A13U C32U A64U U80C, the self-cleavage was 0.11. For A3U A13U U26C U78C, the self-cleavage was 0.96. For A3U A13U U60A U72C, the self-cleavage was 0.69. A3U A15G A28G showed a self-cleavage of 0.58. For A3U A15G A45C U80C, the self-cleavage was 0.38. A3U A15G A45U A64G A65G showed a self-cleavage of 0.15. Variant A3U A15G C39U U43A U69C has a self-cleavage of 0.23. With A3U A15G U60A the self-cleavage was 0.37. A3U A15U A35U A56U U60C A64U C81U gave a self-cleavage of 0.09. In the case of A3U A15U U25C C29G A45G U78A, the self-cleavage is reported as 0.07. For A3U A15U U54C A64U C71U U72C, the self-cleavage was 0.13. For A3U A18C G33A A64G, the self-cleavage was 0.07. A3U A18C U69G U74C gave a self-cleavage of 1.35. Variant A3U A18G A21G A28G has a self-cleavage of 0.07. For A3U A18G U41C U66C U67A U80C, the self-cleavage was 0.24. In the case of A3U A18G U51C U69C, the self-cleavage is reported as 0.75. A3U A18U A20G A45G A56C showed a self-cleavage of 0.24. In the case of A3U A18U A20U U49C, the self-cleavage is reported as 0.12. Work on A3U A18U A28U A65G U78A yielded a self-cleavage of 0.28. Work on A3U A18U U78C yielded a self-cleavage of 0. In the case of A3U A20C U49C U76A, the self-cleavage is reported as 0.09. For A3U A20G A35U, the self-cleavage was 0.33. Variant A3U A20G A45G A47G U51C U69C has a self-cleavage of 0.21. Variant A3U A20G A64G has a self-cleavage of 0.52. In the case of A3U A20G U25C U48C U54C U60G U67A, the self-cleavage is reported as 0. Variant A3U A20U A35U U41A has a self-cleavage of 0.37. In the case of A3U A20U A47G G63A U72C, the self-cleavage is reported as 0.44. For A3U A20U G24A A28U U51G A64G, the self-cleavage was 0.07. In the case of A3U A20U G36U U43C U51C U69G, the self-cleavage is reported as 0.05. Variant A3U A21G A35G U69A U72C has a self-cleavage of 0.6. With A3U A21G C32A A45C G70A the self-cleavage was 0.07. A3U A21G U31C U51A A64U showed a self-cleavage of 0.14. A3U A21U U41A U54C A57U A64G U69C gave a self-cleavage of 0.1. Work on A3U A28C A35G U51A G73A U78C yielded a self-cleavage of 1.32. In the case of A3U A28C A64C, the self-cleavage is reported as 0.09. Variant A3U A28G A45C U72C has a self-cleavage of 0.22. For A3U A28G G46U U54G, the self-cleavage was 0.07. A3U A35G G42A A45G G52A gave a self-cleavage of 0.52. A3U A35G U43G U60A showed a self-cleavage of 0.16. A3U A35G U69C C81A gave a self-cleavage of 1.04. With A3U A35U A47U U69A the self-cleavage was 0.21. In the case of A3U A35U U51C U76C, the self-cleavage is reported as 0.78. Variant A3U A45C G70A has a self-cleavage of 0.16. A3U A45C U49C G52C A56G gave a self-cleavage of 0.38. Work on A3U A45G G53A yielded a self-cleavage of 1.13. Work on A3U A45G U49C U51A yielded a self-cleavage of 0.18. Work on A3U A47U U69C yielded a self-cleavage of 0.2. Work on A3U A56G A64U yielded a self-cleavage of 0.3. A3U A64G U66C gave a self-cleavage of 0.73. A3U C11A A15U A18U C62G U66C U67C gave a self-cleavage of 0.04. In the case of A3U C11A A56G, the self-cleavage is reported as 0.14. Variant A3U C11A U31A A45U U72C has a self-cleavage of 0.09. A3U C11G G19A A20G A64U U66A U72C gave a self-cleavage of 0.08. Work on A3U C11G U25C yielded a self-cleavage of 0.07. A3U C11U A15G A35U U48A U67A A75U showed a self-cleavage of 0.05. For A3U C11U A18G U31A, the self-cleavage was 0.11. Work on A3U C11U U41C yielded a self-cleavage of 0.53. In the case of A3U C12A U51C A56U A65U, the self-cleavage is reported as 0.26. A3U C12G A15U A20U U31C A45U showed a self-cleavage of 0.07. For A3U C12G U49C G52A U66C, the self-cleavage was 0.25. Work on A3U C12U A15U G22U C39G U60C yielded a self-cleavage of 0.1. With A3U C12U G30C A56U C62A U76A the self-cleavage was 0.22. In the case of A3U C12U U25C U58A A64G A75G, the self-cleavage is reported as 0.06. For A3U C12U U26A G30C C50U G63U A64G, the self-cleavage was 0.08. For A3U C17A G19U A56G A77G U78A, the self-cleavage was 0.35. Variant A3U C17G U26C U51C has a self-cleavage of 0.36. With A3U C17U A28G A45U U66C the self-cleavage was 0.15. In the case of A3U C23U U25C A56U G61A U74A A77U, the self-cleavage is reported as 0.04. Variant A3U C29G A35U C40G U54C A64U U72A has a self-cleavage of 0.11. Variant A3U C32U A57U U60A has a self-cleavage of 0.32. Variant A3U C34A U48C A56G C62U U80C has a self-cleavage of 0.11. A3U C37G G42C A64G gave a self-cleavage of 0.16. In the case of A3U C37U C40U U51G C62A U72G, the self-cleavage is reported as 0.16. For A3U C38U U58C A65G, the self-cleavage was 0.43. Work on A3U C38U U66A yielded a self-cleavage of 0.33. In the case of A3U C40A U54A U69C, the self-cleavage is reported as 0.19. In the case of A3U C40A U76C, the self-cleavage is reported as 0.42. A3U C40G U51C A65C U80C showed a self-cleavage of 0.12. For A3U C40U A45G U60C U78C, the self-cleavage was 0.95. With A3U C40U U66C the self-cleavage was 0.29. Work on A3U G6U A28C U31A U41C yielded a self-cleavage of 0.05. A3U G7A A15U U41A U51A U80A gave a self-cleavage of 0.32. A3U G7A A28G U48C A64G showed a self-cleavage of 0.1. A3U G7A G8A C40G U54C A56U showed a self-cleavage of 0.11. In the case of A3U G7U A18C G19C U31C U43C U48C, the self-cleavage is reported as 0.09. A3U G8A A15C U72C showed a self-cleavage of 0.21. For A3U G8A A28C, the self-cleavage was 0.1. A3U G8A A35U U67A gave a self-cleavage of 0.09. Work on A3U G8A U74A yielded a self-cleavage of 0.61. A3U G8U A35U A45C gave a self-cleavage of 0.14. A3U G8U U54A U78C showed a self-cleavage of 0.3. With A3U G10A A21G U26C C40G U51A the self-cleavage was 0.05. Variant A3U G10A A56U U67C C79G U80C has a self-cleavage of 0.1. In the case of A3U G10A U60A U67A A77G U80C, the self-cleavage is reported as 0.1. Work on A3U G16A U31A C50U U60G U67C U78C yielded a self-cleavage of 0.07. Variant A3U G16U A18G G46C U60C has a self-cleavage of 0. Work on A3U G19A A20G A28C U43C U76C yielded a self-cleavage of 0.23. In the case of A3U G22C U31C, the self-cleavage is reported as 0.41. Variant A3U G22C U41C G55U U69C has a self-cleavage of 0.18. With A3U G24A U25C G30C U41C U60C U74G the self-cleavage was 0.05. A3U G24A U43C G63A U67A U72C U76A gave a self-cleavage of 0.17. Work on A3U G33A C39A U41C yielded a self-cleavage of 0.08. With A3U G33A U41C A45G the self-cleavage was 0.14. With A3U G33A U41C A45G G46A the self-cleavage was 0.08. For A3U U25A A47G C50G U54C U72A, the self-cleavage was 0.06. In the case of A3U U25A U60C, the self-cleavage is reported as 0.11. Work on A3U U25C A64G U76A yielded a self-cleavage of 0.31. For A3U U25C U43G U78C, the self-cleavage was 0.27. In the case of A3U U26C A28C A35G, the self-cleavage is reported as 0.74. In the case of A3U U26C U31A, the self-cleavage is reported as 0.12. Work on A3U U26C U51A U60C yielded a self-cleavage of 0.37. A3U U26C U60C U66A gave a self-cleavage of 0.48. Work on A3U U41A U43A C50G A57G U67C yielded a self-cleavage of 0.06. Work on A3U U41C U43C U60C yielded a self-cleavage of 0.09. In the case of A3U U43C A47G, the self-cleavage is reported as 0.21. Work on A3U U43C A57G A64G yielded a self-cleavage of 0.23. A3U U43C C71A gave a self-cleavage of 0.1. With A3U U43C U72C the self-cleavage was 0.59. A3U U48C U60C U72C U78C showed a self-cleavage of 0.18. A3U U48C U67A U78C gave a self-cleavage of 0.28. A3U U49C U51C U54C G63U C68A gave a self-cleavage of 0.18. A3U U51A A77U showed a self-cleavage of 0.8. Variant A3U U51C U54A U72C has a self-cleavage of 1.22. Variant A3U U51C U76G U78A has a self-cleavage of 1.16. Work on A3U U54A G63A U78C yielded a self-cleavage of 0.91. With A3U U54C A56G A75G the self-cleavage was 0.57. For A3U U60C A75G, the self-cleavage was 0.61. Work on A3U U66A U72C yielded a self-cleavage of 0.42. Work on A3U U69C A75G yielded a self-cleavage of 0.49. In the case of C4A A5G A45U, the self-cleavage is reported as 0.44. In the case of C4A A13G A15G A28G C81U, the self-cleavage is reported as 0.65. For C4A A13G U26C U60C A64G U72C, the self-cleavage was 0.24. In the case of C4A A13U U54C U69C, the self-cleavage is reported as 0.92. C4A A15U U60C showed a self-cleavage of 1.02. C4A A20G U41C A56G gave a self-cleavage of 0.89. In the case of C4A A35U C40A U43A A57G, the self-cleavage is reported as 0.22.
